Measurements reported in the supplement of paper PMC11417369.
This is one part of the list.

System: PF3D7_0420300 AP2 domain 1 (GST-tagged)
Assay: gcPBM binding intensity (ln(normalized median fluorescence intensity)); higher = stronger DNA binding
Outline: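 Binding intensity values are the highest Masliner-normalised natural-log median intensity among replicate spots of either probe orientation. The binding step lasted 1 h in 1× PBS with 1% milk, 0.2 mg/ml BSA, 0.5% salmon testes DNA and 0.03% Triton X-100, using GST-tagged P. falciparum DNA-binding domains expressed in E. coli on an Agilent 4 × 180k array of primer-extended double-stranded 36-bp intergenic genomic probes plus negative controls. Alexa488 anti-GST antibody and a 488 nm scan detected bound protein.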

Row | Sequence | gcPBM binding intensity (ln)
1 | ATAGACAGCGCACAAACACACAAACACAGACCCCCA [CACACA_site4409] | 9.95
2 | ATTTATTTATTGGCACGTACAAATTTGTGTTTTCCA [XGTACX_site6978] | 9.31
3 | TTTTTTTCTTTTCAAACACACAATTGGTATATATCA [CACACA_site7542] | 9.32
4 | TTGTAAATTTCTGGTTATATATTTTATGTATATGTT [CACACA_negctrl_site1443] | 9.59
5 | AAAGAAATGAAATATACACACATACATAAATACATA [CACACA_site6081] | 9.92
6 | ATAAAGGAAATTACAAGTACAAATAAGATAAAATAA [XGTACX_site4514] | 9.51
7 | AATTATATATTATAATGTACATATATATAACTATAC [XGTACX_site1865] | 9.27
8 | ATATATTTAAACTACACACGCATATCTTAGAAATAA [CACACA_site1272] | 9.5
9 | TATAAAAAAAGAGGAGGGATGGTATACTTGTGGTTT [TGCATGCA_negctrl_site49] | 9.5
10 | TGTATATATAAACATGCACACGTGGTTGTATATATA [CACACA_site9078] | 9.4
11 | AGAATTCGTTTAAAAAGTACATTCAATTTAATAATG [XGTACX_site6603] | 8.93
12 | TGTAGTCTGGAGAAGAGTACACAGTATCTGGTAACA [XGTACX_site2038] | 8.91
13 | TAGTATTAAAATATTTGTACTTATATGTATTATATA [XGTACX_site538] | 9.18
14 | AATATTTTAAAAAAAAGTACATTATATATATATGTT [XGTACX_site8073] | 9.18
15 | TCTTTGTAAATTTCTTGTACGTAAATTTTTTTTAGG [XGTACX_site7062] | 9.11
16 | TCATAGTATAGACACACACACACACGCATATAAATA [CACACA_site6915] | 10.2
17 | TATTTTACATCTTCTCACATTTTATCACTTTTTAAA [CACACA_negctrl_site330] | 9.23
18 | TACTTACCAAAATACACACACACACTAGATATATAA [CACACA_site5096] | 10.3
19 | TATATATCATATGATACATGCAACAAAATGCATAAT [TGCATGCA_site205] | 9.25
20 | ATGTATATTACTCATTGTACTTATATTTTCTTATTA [XGTACX_site8897] | 9.59
21 | ATTTTATATCTGGATAGTACTTTAATATTTCAAATG [XGTACX_site7304] | 9.21
22 | GTATTTATAAATTATAGTACTTTGCGTATCATATAT [XGTACX_site7358] | 9.32

Row | Sequence | gcPBM binding intensity (ln)
23 | GGATATTCATTAACCACACACACAAAAAAAATAAAA [CACACA_site3800] | 9.92
24 | ATGGATTATACGTGCACACATATATACAAATAAATA [CACACA_site640] | 9.52
25 | ACCATTTGTAGGTAAACACACATTATTATTAATATC [CACACA_site2635] | 9.45
26 | TAAAATGCAATCTGAACACACATATTTTTTTAATAT [CACACA_site6922] | 9.22
27 | TACATCATACGAACAGTGCATATTATTATTGTTCTG | 9.31
28 | ATAAGGAAGGGATGCACACAAAAGGGTACATAAGAA [CACACA_site4006] | 9.82
29 | TTTGAATCCTTATATACACACATTATAAAATATTAT [CACACA_site6406] | 9.38
30 | TATTTGTAAATCGATACACACATATAGATTAATATA [CACACA_site6237] | 9.36
31 | TTATATTATACATACACACCCATATAATATGTTTTT [CACACA_site4636] | 9.53
32 | TTGTTTTTGTTCTTGGGTACTTAAATTATAAATGAT [XGTACX_site113] | 9.45
33 | TCTTATGAATATCCCCGTACACATATATTTCTTATA [XGTACX_site6877] | 9.45
34 | AGCTACACACCACAATGTACATAAATATATATGTGA [XGTACX_site1483] | 9.43
35 | AGAATATTTAATTCAACACACATACATATTTATTAA [CACACA_site5318] | 9.37
36 | TATTGTATATACTATACACACACATACATACATACA [CACACA_site8172] | 9.8
37 | ATATATTTATATAAATGTACATACAGCACATTTATA [XGTACX_site4725] | 9.08
38 | CAAATATACATATGTAGTACATGTTGTAGATAATTT [XGTACX_site2790] | 9.31
39 | TACTTTATATAAAGATCAAAAAATAAATAATTATAA [TGCATGCA_negctrl_site446] | 8.95
40 | GAAGCCCTATGAAAAGTGCGGTTCATGAACAAAGAA [GTGCAC_site9828] | 9.23
41 | GGATAATATATTAGAACACACATATAGATGTAAAAA [CACACA_site6229] | 9.46
42 | AGAATAAGAATTATTAGTACTTATAAATATTATATT [XGTACX_site7228] | 9.18
43 | TAATTTAAAATATATAGTACACACGTGAACACAAAT [XGTACX_site792] | 9.49
44 | CTATTACATTAAATGTGTACATATATATATATATAT [XGTACX_site5233] | 9.21
